The values below are quoted from earlier work in patent US20150224177A1 (priority 2014, published 2015).

For the data set the following is noted: instability of the chemical species; cited from earlier work.

As for `N#CSO` [OSCN^−, hypothiocyanite], the half-life result is “about 24 hours”.
